Laboratory results published in the supplement of paper PMC11417369.
The other results are listed elsewhere or left out.

System: PfHDP1 homeodomain (GST-tagged)
Experiment: gcPBM binding intensity (ln(normalized median fluorescence intensity)); higher = stronger DNA binding
Procedure, shortened: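 GST-tagged P. falciparum DNA-binding domains, expressed in E. coli (about 25 μg on average), were applied for 1 h to an Agilent 4 × 180k array of primer-extended double-stranded 36-bp intergenic genomic probes plus negative controls. The binding buffer was 1× PBS with 1% milk, 0.2 mg/ml BSA, 0.5% salmon testes DNA and 0.03% Triton X-100. Bound protein was detected with Alexa488 anti-GST antibody and scanned at 488 nm. Binding intensity is the highest Masliner-normalised natural-log median intensity across replicate spots of either probe orientation.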

Row | Sequence | gcPBM binding intensity (ln)
1 | TATGTATAAAAATATTGTACATATTATATATATATA [XGTACX_site2947] | 8.85
2 | AAAAAATAAAAAAATAAAAAATAAAAAATAAAAAAT [TGCATGCA_negctrl_site90] | 6.51
3 | TTTTCTAAAAAAAGTTGTACATCTTATTTATATTAT [XGTACX_site295] | 6.42
4 | AAAAATTACCCATCCATACACACATATTTTTTTTAA [CACACA_site2190] | 6.71
5 | ATGTAAGACAAAAAGGGTACATAATGCGTATGTATT [XGTACX_site4666] | 6.47
6 | TATAAAAATAAATAAATAAATAAATAAATAAATAAA [TGCATGCA_negctrl_site310] | 6.53
7 | GTATATAATTATATATGTACTAAATAAATATTTTTA [XGTACX_site6062] | 6.3
8 | ATTTTTTCATATTCTACACACGTGAACAAATGTGTC [CACACA_site3007] | 6.67
9 | TATATTTGGTTTCATTCATTTTTATAGAAATCTCAA [CACACA_negctrl_site1412] | 6.33
10 | TATTTTTTTACATATTGTACATAATATAAAACTTAC [XGTACX_site8273] | 6.59
11 | CACACGTATATATATACACACTAAAATACCCAGACA [CACACA_site6142] | 6.87
12 | AATATTTTGTTATTTATTTAATCTAATATTATGATA [GTGCAC_negctrl_site258] | 6.08
13 | ATATAATAGAAGTGTACACACATATTTATGGGTGTA [CACACA_site5686] | 6.36
14 | AATATTTTTATATATATACACACTTACATATATATA [CACACA_site3609] | 6.8
15 | ATAATATTGTGGTATACACACCTTACAAAAAGGTAC [CACACA_site5582] | 6.77
16 | TTTTTAGTTAATTAAACACACAAAAAAAAAAATAAA [CACACA_site3930] | 6.4
17 | AGGTGAATATTTTTTACACACATAAAAAAAATATAT [CACACA_site57] | 6.51
18 | TATATATTATATATGTGTACTCACTAACAAAAATTA [XGTACX_site6285] | 6.46
19 | TTTAAGATTTTGTAATGTACATATATACATATATAT [XGTACX_site399] | 6.35
20 | TATATTTTTATAATAACACACGATATATGTTTAGGA [CACACA_site1283] | 6.13
21 | AAATTATATAAAGGAACACACATTTTATTTTATTTT [CACACA_site1500] | 6.34
22 | ATTCTTAAAAAAAAATGTACACATGAACAATATGTA [XGTACX_site362] | 6.18
23 | TGTATATCATAAGATGGTACACGTGTGTGCGTATGC [XGTACX_site2255] | 7.98
24 | ATTAAAATTTGTTAAAGTACTTAATAAAAATTTTTC [XGTACX_site1959] | 6.29
